The whole screen tested about 48,000 compounds, of which about 550 (1.1%) were called active. Not shown: some 4% with an inconclusive outcome. Cut-off read from the data, not from the text of the source: active = potency below about 15 µM; inconclusive = mostly about 16 µM to 33 µM; inactive = weaker than that. The list shows a part of the results.
Target: Lysosomal acid glucosylceramidase (Homo sapiens) (UniProt P04062)
Experiment: Glucocerebrosidase;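 note: the screen sought inhibitors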
Conditions: purified enzyme, resorufin glucoside fluorescence (screen aimed at inhibitors), 20 min
Method in brief: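 Compounds titrated against 0.2 nM normal enzyme, 30 uM resorufin beta-D-glucopyranoside substrate, citrate/phosphate buffer with taurocholate and tween-20, pH 5.9. Reaction ran 20 min at room temperature; fluorescence (Ex 548/Em 600) gave AC50.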
Potency is the fitted concentration of half-maximal effect.

UniProt P04062, sequence (P04062 whole entry, looked up): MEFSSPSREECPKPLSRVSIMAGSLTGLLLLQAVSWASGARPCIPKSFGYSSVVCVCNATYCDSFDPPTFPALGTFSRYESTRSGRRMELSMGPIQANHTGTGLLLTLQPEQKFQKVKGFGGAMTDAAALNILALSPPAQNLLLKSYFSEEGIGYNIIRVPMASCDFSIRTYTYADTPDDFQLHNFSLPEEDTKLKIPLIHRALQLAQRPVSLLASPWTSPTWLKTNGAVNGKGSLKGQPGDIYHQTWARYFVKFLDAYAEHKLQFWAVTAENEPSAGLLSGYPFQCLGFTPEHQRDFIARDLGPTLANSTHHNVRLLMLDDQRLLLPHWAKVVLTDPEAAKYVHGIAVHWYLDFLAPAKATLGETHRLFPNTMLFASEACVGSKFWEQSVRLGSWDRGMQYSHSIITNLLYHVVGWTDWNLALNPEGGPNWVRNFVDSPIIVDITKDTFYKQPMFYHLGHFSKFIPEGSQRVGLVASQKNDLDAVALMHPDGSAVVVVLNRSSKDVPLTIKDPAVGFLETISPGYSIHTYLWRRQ

Structure (SMILES)	Potency
CCOc1ccc2nc(NCCNC(=O)C3CC3)c(C)cc2c1	inactive
COc1ccc(NC(=O)C2C(=O)NC3(C)CC2c2ccccc2O3)cc1 (configuration not stated)	inactive: > 76.9 µM
O=C1C2C3C=CC(C3)C2C(=O)N1Cc1cccnc1 (configuration not stated)	inactive: > 76.9 µM
CCOC(=O)CSc1nc2c([nH]c3ccccc32)c(=O)n1C	inactive: > 76.9 µM
COc1cccc2cc(C(=O)N3CCN(c4ccccc4F)CC3)c(=O)oc12	inactive: > 76.9 µM
Cc1ccc(C(CC(=O)O)Nc2nc(N3CCCCC3)nc(N3CCCCC3)n2)cc1 (configuration not stated)	inactive: > 76.9 µM
Cc1ccc(S(=O)(=O)NCCC(=O)NCc2ccc3c(c2)OCO3)cc1C	inactive: > 76.9 µM
O=C(c1cnccn1)N(c1ccccc1)C1(C(=O)NC2CCCCC2)CCCCC1	inactive: > 76.9 µM
Oc1ccc(CNc2ccccc2F)c2cccnc12	inactive: > 76.9 µM
CCOC(=O)Cc1nnc(NC(=O)c2ncn[nH]2)s1	inactive: > 76.9 µM
COc1ccccc1N1CCN(CC(=O)Nc2ccc(CN3CCCCC3)cc2)CC1	inactive: > 76.9 µM
CN1CCN(C(=O)c2cccc(S(=O)(=O)N3CCCCC3)c2)CC1	inactive: > 76.9 µM
CCC(C)n1c(C)nc2c(c1=O)c1nc3ccccc3nc1n2-c1ccc2c(c1)OCCO2 (configuration not stated)	inactive: > 76.9 µM
CCOC(=O)N1CCC(NS(=O)(=O)c2ccc3c(c2)CCN3C(C)=O)CC1	inactive: > 76.9 µM
c1ccc(-c2n[nH]nc2-c2ccccc2)cc1	inactive: > 76.9 µM
CC(=O)C1=C(O)C(=O)N(CCc2c[nH]c3ccccc23)C1c1ccco1 (configuration not stated)	inactive: > 76.9 µM
OCCNc1ncnc2ccc(Br)cc12	inactive
CCOc1ccccc1C(=O)N(CN1CCCC1=O)c1cccc(Cl)c1	inactive: > 76.9 µM
COC(=O)CCC(=O)Nc1ccc(NC(C)=O)cc1	inactive: > 76.9 µM
Cc1cc(C)n2cc(CSc3nnc(-c4ccccc4)o3)nc2n1	inactive: > 76.9 µM
Cc1sc2nc(CN3CCOCC3)nc(N3CCC(C(N)=O)CC3)c2c1C	inactive: > 76.9 µM
Cn1c(=O)oc2cc(S(=O)(=O)Nc3cccc(C(=O)O)c3)ccc21	inactive: > 76.9 µM
CCn1c(COc2ccc3c(c2)OCO3)nnc1SCC(=O)c1ccccc1	inactive: > 76.9 µM
CCOC(=O)c1c(-c2cccs2)csc1NC(=O)CN1CC(C)OC(C)C1 (configuration not stated)	inactive: > 76.9 µM

Structure (SMILES)	Potency
COc1ccccc1-c1cc(C(=O)N2CCN(c3ccccc3OC)CC2)no1	inactive: > 76.9 µM
CCOC(=O)N1CCN(Cc2ccccn2)CC1	inactive: > 76.9 µM
O=C(NCN1C(=O)C2C3C=CC(C3)C2C1=O)Nc1nccs1 (configuration not stated)	inactive: > 76.9 µM
CCOC(=O)c1cc(CC)sc1NC(=O)CCC(=O)O	inactive: > 76.9 µM
Cn1c(Nn2cnnc2)nc2ccccc21	inactive: > 76.9 µM
COc1ccc2cc(C(c3nnnn3C(C)(C)C)N3CCc4ccccc4C3)c(=O)[nH]c2c1 (configuration not stated)	inactive: > 76.9 µM
N#Cc1ccc(COC(=O)CSc2nnc(C3CCCCC3)n2N)cc1	inactive: > 76.9 µM
O=C(CCN1C(=O)COc2ccccc21)NCc1cccnc1	inactive: > 76.9 µM
O=C(NC1CCCCCC1)C1c2ccccc2C(=O)N1Cc1ccco1 (configuration not stated)	inactive: > 76.9 µM
Cc1cc(C(F)F)n2nc(C(=O)Nc3cc(C)on3)nc2n1	inactive: > 76.9 µM
COc1cc(NC(=O)CCn2c(=O)[nH]c3ccsc3c2=O)cc(OC)c1	inactive: > 76.9 µM
CN(CC(=O)N1CC(=O)N(CCc2ccccc2)C(=O)C1)S(=O)(=O)c1cccc2nsnc12	inactive: > 76.9 µM
CCOc1ccccc1OCCCC(=O)NC1=NCCS1	inactive: > 76.9 µM
CC(=O)N1CCN(c2ccc(NCc3ccc(C(C)C)cc3)cc2)CC1	active: 7.71 µM
COc1ccc(CCNC(=O)CCS(=O)(=O)c2ccc3c(c2)CCN3C(C)=O)cc1OC	inactive: > 76.9 µM
Cc1cc(=O)oc2cc(OC(C)C(=O)O)c(Cl)cc12 (configuration not stated)	inactive: > 76.9 µM
Cc1ccc2cc(C#N)c(N3CCCN(S(=O)(=O)c4ccccc4)CC3)nc2c1	inactive: > 76.9 µM
COc1ccc(C2(C(=O)N3CCOCC3)CCOCC2)cc1OC	inactive: > 76.9 µM
Cc1ccc(NC(=O)CSCC(N)=O)cc1C	inactive: > 76.9 µM
Cc1nnc2sc(-c3cc4ccccc4o3)nn12	inactive: > 76.9 µM
OC(CN1C2=NCCCN2c2ccccc21)c1ccc2c(c1)OCO2 (configuration not stated)	inactive: > 76.9 µM
N#Cc1cccc(NC(=O)c2ccccc2C(=O)O)c1	inactive: > 76.9 µM
COc1ccc(Cl)cc1NC(=O)N(C)Cc1c(C)nn(C)c1C	inactive: > 76.9 µM
